In the supplement of paper PMC10126150:
Sequences with one replicate were seen in a single cluster, so their values are uncertain.

Tested on: ATP
Test: switch fluorescence ratio, 500 uM ATP over buffer (Cy3 cluster intensity, sum of 5 cycles each) (fold (ratio)); higher = stronger signal-on switching upon ATP binding; sequences stand for … in TCGTCGGCAGCGTCAGATGTGTATAAGAGACAGTTTTTTTTTTTTTTTTTTTTTTTTT…TC
Settings: aptamer strand: ATP DNA aptamer (quencher-CACCTGGGGGAGTATTGCGGAGGAAGG + anchor), 100 nM annealed; ATP concentration: 500 uM; one replicate
Outline: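 The quencher-labelled ATP aptamer, at 100 nM, was annealed to Cy3-labelled switching-strand clusters on a modified Illumina MiSeq flow-cell. The clusters were imaged in selection buffer, then after 15 min with 500 uM ATP at 22 °C, and this buffer/ATP cycle ran five times with NaOH stripping and re-annealing between runs. Per-cluster fluorescence ratios, summed target-cycle over summed buffer-cycle Cy3 intensity, were averaged per switch-domain sequence. Clusters outside 100-1000 RFU were excluded.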
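Also: ATP exposure 15 min at 22 °C before imaging.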

Sequence | switch fluorescence ratio
CTAGGGGAGC | 0.961
CACAGGGTGG | 0.984
TTACGGGTGA | 1.02
ACCGAGATGC | 2.01
ATGAAGAATG | 1.02
TCCCGCTTCT | 1.33
GCGCAGCGCC | 1.01
CTAGAGACCA | 1.02
GCGGTGGGCG | 1.04
CCGAAAGTAA | 5.22
CGTACTCTGT | 0.993
AGAGCTTTCG | 1
TCACAAAACG | 1.06
GGAAGACAGC | 0.977
GATATCGTC | 0.968
GGCGGGGAAC | 0.981
GCAGATCT | 1.06
ACCGACTGGA | 1.03
TAACAAGTTG | 0.973
CAAATATATG | 1.04
GCGCTGTTAC | 3.98
TACGTGGAAT | 1
TGGGCCGGCG | 1
AGGTCCTTGA | 0.985
GGCTTTATCG | 1.03

Sequence | switch fluorescence ratio
TTCCAACTCG | 1.02
TAACTAAAAA | 0.999
AACTGGGAAG | 1
GTATTAAGAT | 0.982
AGGAAAAGGA | 0.997
AATTGGGTGA | 1.02
AAAATTTCAG | 0.979
AATCGTGTAA | 0.993
CGCATAAACC | 2.87
AGCATAGTAA | 1.05
AGGAAGCTTG | 0.988
GGTCCCGGAT | 0.999
TTCAGCGA | 1.05
CCATCTCGTA | 0.969
TCGGCATTTC | 1.62
CTATGCACCG | 1.04
CGAGGATTAT | 1.03
CAGGTTATTG | 1.02
AGTGGTTTTC | 0.952
TAGAGCGCTT | 1
GATTACGCAG | 0.999
GACTTCAACG | 1.01
CGGGCAGGGA | 1.07
CTGTCATCCA | 0.994
ACATACATCG | 1.22

Sequence | switch fluorescence ratio
CGCTGGTCGG | 1.02
GAATTAGGGG | 1.03
TGGCAATATC | 3.69
CTCATGCCAT | 1.05
TACATTGGTT | 0.962
TATTCTTATC | 0.978
ACGGTCAATC | 1.39
CCCGGGCACT | 1.05
CAGACTATG | 0.962
ATCATGGCGA | 1.01
CTGCGATATG | 1.51
CGTACGAATT | 0.996
TGTATCTCAT | 1
ATGGATCGG | 0.98
CGAGGTAAAC | 1.63
GAAGTTGGAA | 1
ATATACTTCC | 1.99
TCTGTTTGAT | 0.964
AAAAAACGAT | 1.01
TCTCTCACAG | 1.13
TGTTCTAGGA | 1.03
AGTTTTGTGG | 1.04
GTGCACAGTG | 1.01
CGAGTGAGCG | 0.96
CTGTGCATAT | 1.62

Sequence | switch fluorescence ratio
GGCTTTGCA | 0.94
ACATCCAAGT | 1.05
TGGGTGCCCG | 1.02
CGATGCGGTT | 1.02
ATGGACCG | 1.05
TATTAGATTA | 0.959
CAATCATACA | 1.05
GGAGAAATT | 1.02
TTCGGCATGT | 1.02
CTTGTTAAAG | 0.998
TAATAGTGGA | 0.985
TTTTCAAAAC | 1.04
AATGCTCAGG | 1.08
GACTGTTGGT | 0.953
ATACAAAGAC | 1.03
CTGCATGGGT | 1.03
GGTCTCCTGA | 1.02
GACAGCTTGC | 0.992
CGGGAACGTA | 0.97
GGGCACTGTC | 0.951
CGGAATCCGT | 0.95
GCTCACGTTA | 1.31
TTTTCAGTAC | 1.07
TTGGCACCTC | 0.948
TCCGCCATA | 1.21

Sequence | switch fluorescence ratio
TTCTTACGTA | 1.02
GGCCGCAGAA | 1.14
TAGGCGTGAG | 1
GCAGGAGCTG | 0.997
CATAGGGCAT | 1.03
GCTTGCTTCT | 0.995
GCCGTGCCCC | 1.02
ATTTGCGCTT | 1.01
CTATTGGTCC | 1.06
TGAAGTCATG | 0.992
GACGAATTGA | 1.01
TTCGTACATT | 0.978
ACTATCG | 1.09
CAGGATAACG | 1.04
CATAATGCAT | 0.936
TAAGGCGATG | 0.989
ATCGTACGTT | 0.989
GGTACGAGCT | 1.01
TCTTTTCGCT | 0.981
ACTCCAAATA | 3.67
CATGGGTGTA | 1.02
TGTTTGATA | 0.952
GGCAGATGGG | 1.02
CTTGGCGGTA | 1
AATTGTGCAG | 0.946

Sequence | switch fluorescence ratio
TTATCCTC | 1.02
AGTGATCAGC | 1.05
CACCGAAGAG | 1.05
GATTAGGAGA | 0.988
AGCAGTTACG | 1.13
TTGACTAGGA | 1.02
GGGTGTTAAT | 0.974
AATTAGTCTT | 0.954
CTGTTCTCGA | 1.01
ACAGCATGAG | 1.02
CCACAAAAAG | 1.9
GGTAAACGCA | 1.01
TACGAACGTT | 1.17
TAGGAACGAA | 1.01
CAATGAGACC | 1.07
AGCTGCAGGA | 1.03
GGCGGTGAGT | 1.02
CTGAGCAATG | 4.09
GGGGCTCGTG | 1.02
CCCTGGATGT | 1.09
GCTACCCCGG | 4.96
CATTTTCAGG | 0.981
GGCAGTGGGC | 1.01
AAGCTTATTT | 0.977
TATGGATCGT | 1.02

Sequence | switch fluorescence ratio
CGAGTAGGCA | 1.08
CCTGGCAAAA | 3.18
CCGGAAGATC | 1.97
CGAGCAACGT | 1.11
ATTGCTGGTC | 0.955
TCGGCGCAAG | 1.05
TCAGCTCGGT | 0.998
TAGTCACAGC | 1.02
AGTCGCGATG | 0.996
CATGATAGCT | 0.982
ATATTATATC | 0.991
TAGGCCCGGT | 1.01
AGCGGCCCTT | 1.02
AGCTGCACTT | 1.01
CATATGATGT | 1.05
TCTTCATACT | 1.07
ACTCTATGGT | 1.07
AGCCCCTCGA | 0.985
ATTGACCAGA | 1.08
CCTGGTGCGT | 1.45
ACCTATTCAC | 1.08
CCATGAATGC | 1.53
CGACTGACTA | 1.14
ATACTAATCT | 1.03
AGAATTGGTT | 1.02

Sequence | switch fluorescence ratio
TTAATACTAT | 0.988
TAGCATAGAA | 0.97
CATTTCTACG | 1.1
CGAGTGGCTC | 1.03
AAAACAACAC | 1.11
GCCAAGTGCT | 0.994
CGGGCTAGAA | 0.944
TGCAAAACGT | 1.08
ATTGGCGAAG | 0.995
TCTTTAAGTG | 0.984
CGGCATATGA | 1.09
GAGTACTTAT | 1.01
TCCCGATTCG | 1.04
AACTAAGGGG | 1.01
TCGTGCACCG | 0.978
TATGAAACG | 1.03
AGTTCAAAAC | 0.972
CGTACGTTGG | 1.02
CCCGCCAAAA | 1.17
ATAGGGACCG | 1.01
TATTTTGGTA | 0.999
CCGGGTTAGA | 1.03
ATGGGAAGTT | 0.954
CGGCACACCA | 1.1
GGACTAGTGT | 0.978
